Paper PMC4336329 (PLoS ONE, 2015)
The campaign covered roughly 310,000 compounds. About 2,200 (0.71%) showed an effect of 50% or more. The effect is printed as a negative number. The list shows a part of the results.

The molecules below were run against human ether-à-go-go-related gene (hERG) potassium channel (human, UniProt Q12809) (assay: primary screen, population patch clamp on CHO cells stably expressing hERG).
Sequence of human ether-à-go-go-related gene (hERG) potassium channel (Q12809 whole entry, looked up): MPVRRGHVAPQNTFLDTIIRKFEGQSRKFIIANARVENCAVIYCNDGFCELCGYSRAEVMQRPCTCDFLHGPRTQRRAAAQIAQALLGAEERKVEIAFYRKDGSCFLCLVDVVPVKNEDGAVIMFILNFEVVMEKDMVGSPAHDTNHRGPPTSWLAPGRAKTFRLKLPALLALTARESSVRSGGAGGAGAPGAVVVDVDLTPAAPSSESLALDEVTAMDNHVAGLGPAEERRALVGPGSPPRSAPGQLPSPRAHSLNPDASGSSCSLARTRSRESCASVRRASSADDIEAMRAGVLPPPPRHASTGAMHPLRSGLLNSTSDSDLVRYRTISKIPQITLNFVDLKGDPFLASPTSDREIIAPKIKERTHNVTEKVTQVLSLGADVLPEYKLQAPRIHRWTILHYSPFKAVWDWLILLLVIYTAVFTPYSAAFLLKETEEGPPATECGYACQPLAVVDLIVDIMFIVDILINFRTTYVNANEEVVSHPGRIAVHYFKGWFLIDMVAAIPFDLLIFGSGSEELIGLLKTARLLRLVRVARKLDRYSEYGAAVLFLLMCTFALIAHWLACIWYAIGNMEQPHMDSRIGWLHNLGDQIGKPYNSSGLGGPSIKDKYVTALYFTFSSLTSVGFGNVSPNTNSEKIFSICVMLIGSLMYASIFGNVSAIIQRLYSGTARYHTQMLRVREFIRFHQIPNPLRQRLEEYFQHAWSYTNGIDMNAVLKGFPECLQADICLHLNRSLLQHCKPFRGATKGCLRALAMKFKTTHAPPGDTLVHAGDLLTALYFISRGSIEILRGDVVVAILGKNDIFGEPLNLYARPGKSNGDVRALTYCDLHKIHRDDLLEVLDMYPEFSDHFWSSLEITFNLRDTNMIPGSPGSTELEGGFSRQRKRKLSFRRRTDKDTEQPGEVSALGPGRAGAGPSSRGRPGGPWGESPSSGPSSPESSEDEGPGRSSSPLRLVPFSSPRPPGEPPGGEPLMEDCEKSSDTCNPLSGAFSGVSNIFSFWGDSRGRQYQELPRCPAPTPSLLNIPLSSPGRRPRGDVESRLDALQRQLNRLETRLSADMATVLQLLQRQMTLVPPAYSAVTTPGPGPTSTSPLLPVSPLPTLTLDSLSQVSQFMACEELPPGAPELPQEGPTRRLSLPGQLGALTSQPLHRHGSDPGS

Going from `COc1c(C)cc(C(=O)C2CCCN(S(=O)(=O)c3c(C)noc3C)C2)cc1C` (centres unmarked) to `COc1ccc(S(=O)(=O)NC2CC(=O)N(c3ccc(C)c(C)c3)C2)cc1` (centres unmarked), the “hERG current change (%, negative = inhibition) at 1uM” value rises from 10.8% to 19%.

Compared with `CC(=O)Nc1sc(N/N=C\c2ccccc2Cl)nc1-c1cccs1`, `O=C(N/N=C/c1cccc2ccccc12)c1cccs1` is higher in “hERG current change (%, negative = inhibition) at 1uM” value: 13.3% for the first, 14.5% for the second.

First: CCN(CC)C(=O)CSc1nc2c(sc(=S)n2CC)c(=O)n1-c1ccccc1
Second: CCCn1cc(SCC(=O)Nc2nnc(C)s2)c2ccccc21
The “hERG current change (%, negative = inhibition) at 1uM” value of the first is lower: -13.3% for the first, 16% for the second.

First: CCc1nc(C)cn1S(=O)(=O)c1cc(Br)ccc1OC
Second: COc1ccc(OC)c(S(=O)(=O)N(C)CC(=O)N2CCOCC2)c1
The “hERG current change (%, negative = inhibition) at 1uM” value of the first is lower: 11.9% for the first, 12.9% for the second.

First: Cc1ccc(S(=O)(=O)c2cccc(S(=O)(=O)N3CCCC3)c2)cc1S(=O)(=O)N1CCCC1
Second: O=S(=O)(c1cccc(F)c1)N1CCN(Cc2cc3c(cc2Br)OCCO3)CC1
The “hERG current change (%, negative = inhibition) at 1uM” value of the first is lower: -10.3% for the first, 15% for the second.

First: Nc1c(Cl)cc(-c2csc(N3CCCC3c3nc4cc(Cl)c(N5CCCCC5)cc4n3CCOCCO)n2)cc1Cl (centres unmarked)
Second: Cn1c(=O)c2c(SCC(=O)N3CCCC3)nc(-c3ccccc3)nc2n(C)c1=O
The “hERG current change (%, negative = inhibition) at 1uM” value of the first is lower: 10.8% for the first, 15% for the second.

First: O=C(CCCn1cncn1)N1CCCC(N2CCN(c3ccc(F)cc3)CC2)C1 (centres unmarked)
Second: Cc1cc(=O)n2nc(N3CCC(C(=O)N4CCN(c5ccccc5)CC4)CC3)sc2n1
The “hERG current change (%, negative = inhibition) at 1uM” value of the first is lower: 1.19% for the first, 2.91% for the second.

Going from `CC1(C)CC(=O)C2=C(C1)NC(=O)NC2c1ccccc1` (centres unmarked) to `O=C1NC2c3ccccc3CC2O1` (centres unmarked), the “hERG current change (%, negative = inhibition) at 1uM” value rises from -6.29% to 14.3%.

First: O=C(O)C1CCCCC1C(=O)Nc1nc(-c2cccs2)cs1 (centres unmarked)
Second: O=C(O)[C@H]1CCCC[C@H]1C(=O)NCCNC(=O)[C@@H]1CCCC[C@@H]1C(=O)O
The “hERG current change (%, negative = inhibition) at 1uM” value of the first is lower: 7.55% for the first, 11.8% for the second.

First: CSc1ccc(CCNC(=O)CCc2nnc3ccc(NCCCN4CCCC4=O)nn23)cc1
Second: Cc1ccc(S[C@@H](CCN2CC[C@H](O)CCC2=O)c2ccccc2)cc1
The “hERG current change (%, negative = inhibition) at 1uM” value of the first is lower: 3.19% for the first, 9.99% for the second.

Going from `Cc1c(C(=O)NCc2ccco2)oc2ccccc12` to `Cc1c(C(=O)OCC(=O)N2CC(C)CC(C)C2)oc2ccccc12` (centres unmarked), the “hERG current change (%, negative = inhibition) at 1uM” value falls from 9.16% to 7.8%.

Compared with `Cc1cccc(OCC(=O)Nc2cccc3nsnc23)c1`, `O=C(O)COc1ccc2nsnc2c1Cl` is lower in “hERG current change (%, negative = inhibition) at 1uM” value: 15.3% for the first, 3.81% for the second.

First: CCCCN1c2cc(C)c(O)cc2C(C(=O)OCC)C1C (centres unmarked)
Second: CCOC(=O)CNc1ccc(C(=O)OCC)cc1[N+](=O)[O-]
The “hERG current change (%, negative = inhibition) at 1uM” value of the first is higher: 8.7% for the first, 4.36% for the second.

Going from `COc1ccc(CN(C)c2ncnc3sccc23)c(OC)c1OC` to `COc1ccc(-c2noc(CCCOc3ccccc3)n2)cc1OC`, the “hERG current change (%, negative = inhibition) at 1uM” value falls from -1.99% to -4.17%.

Going from `COc1ccc(/C=C2\C(=N\O)C3CCN2CC3)cc1.Cl` to `COc1ccc(N2CCN(c3oc(Cc4cccc5ccccc45)nc3C#N)CC2)cc1`, the “hERG current change (%, negative = inhibition) at 1uM” value falls from 6.07% to -5.62%.

First: O=C(CS(=O)(=O)c1ccccc1)Nc1nnc(Cc2ccccc2)s1
Second: O=C(NCc1ccccc1)C(=O)NCC1OCCN1S(=O)(=O)c1ccc(Br)cc1 (centres unmarked)
The “hERG current change (%, negative = inhibition) at 1uM” value of the first is higher: 10.8% for the first, 8.89% for the second.

First: Cc1ccc(Cn2ccc(NC(=O)c3nn(C)cc3[N+](=O)[O-])n2)cc1
Second: Cc1ccc(C(=O)Nn2cnnc2)cc1[N+](=O)[O-]
The “hERG current change (%, negative = inhibition) at 1uM” value of the first is higher: 12.2% for the first, 8.15% for the second.

Going from `COc1cc(/C=C2/C(=N)N3C(SC)=NSC3=NC2=O)ccc1OC(=O)c1ccco1` to `COc1ccccc1NC(=O)c1cnc2c(-c3ccccc3)c(C)nn2c1C`, the “hERG current change (%, negative = inhibition) at 1uM” value rises from 16.4% to 17.9%.

First: COc1ccc(N2C(=O)CC(Sc3ccccc3C(=O)O)C2=O)c([N+](=O)[O-])c1 (centres unmarked)
Second: O=C(O)c1cccc(N2C(=O)c3cc4cccc(Br)c4cc3C2=O)c1
The “hERG current change (%, negative = inhibition) at 1uM” value of the first is higher: 15% for the first, 12.7% for the second.

First: CC(=O)NC12CC3CC(C1)CC(C(=O)Nc1nc4ccc(S(C)(=O)=O)cc4s1)(C3)C2
Second: O=C(NC1CCS(=O)(=O)C1)C1CCCCN1S(=O)(=O)c1ccc(Cl)cc1 (centres unmarked)
The “hERG current change (%, negative = inhibition) at 1uM” value of the first is higher: 11.8% for the first, 9.91% for the second.

Going from `CC1CCCN(c2nc(-c3cccnc3)nc3scc(-c4ccccc4)c23)C1` (centres unmarked) to `C=CCc1c(C)nc(-c2ccccc2)nc1N/N=C/c1ccccc1`, the “hERG current change (%, negative = inhibition) at 1uM” value falls from 9.7% to -1.93%.

Going from `CCN(CCO)c1ncnc2c1sc1nc(CC(C)C)c3c(c12)CC(C)(C)OC3` to `CCCCC(=O)N(CCOC)c1nnc(-c2ccc(OC)cc2)s1`, the “hERG current change (%, negative = inhibition) at 1uM” value falls from 14.1% to 10%.

Compared with `CCOC(=O)C1CCN(C(=O)COc2ccc(Br)cc2Br)CC1`, `CCCc1cc2nnc(SCC(=O)N(C)C3CCCCC3)n2c(N)n1` is higher in “hERG current change (%, negative = inhibition) at 1uM” value: -12% for the first, 1.23% for the second.

Compared with `Cc1nn(-c2ccc(F)cc2)c(Cl)c1/C=C(\CCC(=O)O)c1nc2ccccc2s1`, `CC(CCc1ccccc1)NC(=O)CN(C)Cc1ccc(F)cc1` (centres unmarked) is higher in “hERG current change (%, negative = inhibition) at 1uM” value: 4.11% for the first, 6.38% for the second.

Going from `COC(=O)c1ccccc1NC(=O)CSc1nncn1-c1cccnc1` to `CCn1c(COc2ccc(C)cc2)nnc1SCC(=O)NNC(=O)c1ccc(OC)cc1`, the “hERG current change (%, negative = inhibition) at 1uM” value rises from 3.72% to 9.58%.

Compared with `CN1CCNC(=O)C1CC(=O)O` (centres unmarked), `Nc1ccc(O)c(C(=O)O)c1` is lower in “hERG current change (%, negative = inhibition) at 1uM” value: 5.33% for the first, -3.53% for the second.

Going from `O=c1c2cc(N3CCOCC3)ccc2[nH]c(=S)n1Cc1cccc(Cl)c1` to `CCOCCn1c(CN2CCN(C(=O)c3ccco3)CC2)nc2c1c(=O)n(C)c(=O)n2C`, the “hERG current change (%, negative = inhibition) at 1uM” value falls from 4.86% to 2.56%.

Compared with `Fc1ccc(NC(=S)Nc2ccc(Cl)cc2)cc1`, `COc1cccc(Oc2ccc(C(F)(F)F)cc2NC(=O)C2=COCCO2)c1` is lower in “hERG current change (%, negative = inhibition) at 1uM” value: 7.08% for the first, -3.29% for the second.
